We go through 53 molecules from ChEMBL document CHEMBL4888484, “Replenishing the malaria drug discovery pipeline: Screening and hit evaluation of the MMV Hit Generation Library 1 (HGL1) against asexual blood stage Plasmodium falciparum ,using a nano luciferase reporter read-out” (2022).

What is called % Inhibition is the drop in the measured response relative to a control, in per cent.

The structures appear in SMILES notation. Out of some 150,000 compounds screened, about 540 (0.36%) showed an effect of 50% or more. This is one part of the list.

The experiment relates to Plasmodium falciparum. Briefly: Primary screen in NF54 nanoGlo assay, in single point, at 2uM, 72h; a lower Z score goes with more inhibition. Conditions: timepoint 72 hour. In kind it is functional, Erythrocyte.
Regarding `COc1ccc(-c2nc3ccccc3c(=O)n2Cc2ccccc2)c2ccccc12`, the “% Inhibition” value was 1% and the Z score is on record as -0.21.
Consider `CC1(C)CN(C(=O)Cc2[nH]ncc2C(=O)N2CC(C)(C)C2)C1`, for which the “% Inhibition” value was 4% and the Z score was -0.71.
For `CC[C@@H](NC(=O)OC(C)(C)C)C(=O)NC1CCCC1Oc1ccccc1` (stereo partly specified), in that order: 10% and -1.28.
For `C/C(=C\c1ccccc1)C(=O)N1CC[C@H](n2c(C)nc3ccccc32)C1`, in that order: -15% and 1.91.
Take `Cc1nnsc1C(=O)N1CCC[C@H](CCc2ccccc2)C1`: the “% Inhibition” value is listed as -8% and the Z score was found to be 1.17.
On the same counts, the results for `CCOc1ccc(NC(=O)c2ccccc2N2C(=O)[C@@H]3Cc4c([nH]c5ccccc45)C(c4ccccc4C)N3C2=O)cc1` (stereo partly specified) are 3% and -0.32.
For `Cc1nn(C)c2nc(-c3ccccn3)nc(N3C[C@H](O)[C@@H](N4CCCC4)C3)c12`, in that order: 10% and -2.04.
Take `CN1CCOC(C(=O)N2CCOC3CCCCC32)C1` (stereo unspecified): the “% Inhibition” value is given as -10% and the Z score came out at 1.57.
On the same counts, the results for `CCO[C@H]1[C@H](NC(=O)CC)c2ccccc2C12CCN(Cc1cc3ccccc3o1)CC2` are -16% and 1.98.
For `O=S(=O)(NC1CCC2OCCOC2C1)c1ccc(-c2ccc(Cl)c(Cl)c2)cc1` (stereo unspecified), in that order: -1% and 0.27.
For `CCOC1CC(CC(=O)Nc2ccc(O)cc2Br)C1` (stereo unspecified), in that order: 0% and -0.04.
On to `CCn1cc(C(=O)NCCCN2CCC[C@H](C)C2)c(C(C)C)n1`, for which the “% Inhibition” value is given as 5% and the Z score is on record as -0.44.
On the same counts, the results for `Cc1cn(C)nc1C(=O)N1CC(C)(C)O[C@](C)(C(F)(F)F)C1` are -14% and 1.99.
For `O=C1CCC(=O)N1OCc1ccc(F)cc1`, in that order: -3% and 0.6.
On the same counts, the results for `Cc1nsc(NC(=O)COc2ccccc2Cl)n1` are -9% and 1.18.
Consider `COC(=O)CC1(NCC(=O)NCC2CCC2)CCCCC1`, for which the “% Inhibition” value is -5% and the Z score was found to be 0.64.
On the same counts, the results for `Cc1noc(C)c1CN(C)C[C@H](O)c1ccc(Br)cc1` are -5% and 0.75.
On the same counts, the results for `Cc1cc(C)nc(O[C@H]2CCN(S(=O)(=O)c3ccc(F)c(Cl)c3)C2)n1` are -15% and 2.35.
On the same counts, the results for `Cc1ccc2c(c1)NC(=O)c1cc(S(=O)(=O)N(C)C)c(N3CCCC3)cc1O2` are -15% and 2.03.
As for `COc1ccccc1C(=O)Nc1ccc2c(c1)C(O)=Nc1cccnc1O2`, the “% Inhibition” value is on record as 15% and the Z score is -2.78.
On the same counts, the results for `CCC(CC)c1nnc(NC(=O)N2CC[C@H](S(C)(=O)=O)C2)s1` are 7% and -1.03.
For `COc1ccc2c(C)c(C(=O)N3CCc4nc(C)[nH]c(=O)c4CC3)oc2c1`, in that order: -5% and 0.6.
For the molecule `CC1CN(C[C@H]2CCCN2C(=O)OC(C)(C)C)CCS(=O)(=O)C1` (stereo partly specified), the “% Inhibition” value is reported as 13% and the Z score is on record as -1.6.
Regarding `COc1ccc(=O)n(Cc2cc(C(C)(C)C)on2)n1`, the “% Inhibition” value worked out at 0% and the Z score is given as -0.05.
Consider `CS(=O)(=O)c1ccccc1CCNC(=O)[C@H]1CCn2ccnc2C1`, for which the “% Inhibition” value is reported as 0% and the Z score was -0.04.
Take `COCCN1C[C@]2(CCCN(C(=O)CCc3cccc(F)c3)C2)CCC1=O`: the “% Inhibition” value is 9% and the Z score is reported as -1.63.
On the same counts, the results for `CC(C)NC(=O)c1nsc(C(=O)NCc2cccnc2)c1N` are -19% and 1.86.
For the molecule `Cc1nccn1CCCNc1ccc(OC(F)F)cc1`, the “% Inhibition” value is given as -4% and the Z score came to 0.3.
On the same counts, the results for `COc1ccc(-n2nc(C)c3sc(N4CCCN(C(=O)C(F)(F)F)CC4)nc32)cc1` are -9% and 1.05.
Consider `Cn1nc(-c2cccc(Cl)c2)cc1C(=O)NC[C@@H]1CCCN2CCCC[C@H]12`, for which the “% Inhibition” value is -6% and the Z score is on record as 0.88.
For `CCCn1cc(C(=O)N2CC(=O)N(c3cccc(C)c3)C[C@@H]2C)c(C)n1`, in that order: 3% and -0.65.
Consider `O=C1CC[C@@]2(CCCO2)CCN1Cc1noc(-c2ccco2)n1`, for which the “% Inhibition” value is 1% and the Z score is listed as -0.19.
Regarding `Cc1cccc(CN2CCN(C(=O)c3cc(C)nc(N)n3)[C@@H](C)C2=O)c1`, the “% Inhibition” value is given as -2% and the Z score is 0.2.
Turning to `Cc1[nH]c2ncnc(NC(=O)c3cccc(S(=O)(=O)NC4CC4)c3)c2c1C`, the “% Inhibition” value is on record as -21% and the Z score came out at 3.01.
For `COc1ccc(O)c(-c2nc(-c3csc(C(C)C)n3)no2)c1`, in that order: -13% and 1.25.
As to `Cc1csc(NC(=O)CCC(C)C)n1`, the “% Inhibition” value is given as -12% and the Z score was found to be 1.67.
On the same counts, the results for `CC(C)(C)OC(=O)c1ccccc1NC(=O)[C@@H]1COCCO1` are 6% and -0.72.
For `Cc1cccc(-n2nc(C)c(CCC(=O)NC3CC3)c2Oc2ccccc2C)c1`, in that order: -7% and 1.19.
`CC1(c2cc(NC(=O)NC3(c4ccc(C#N)cc4)CCOCC3)no2)CCCC1`: the “% Inhibition” value came out at 2% and the Z score is given as -0.23.
Regarding `CC1=C(C(=O)NCc2cc(CC(C)C)on2)[C@H](c2[nH]cnc2C)NC(=O)N1`, the “% Inhibition” value is reported as -7% and the Z score is given as 1.21.
For `Cc1noc(C)c1C(=O)N(C)CCn1ccnc1`, in that order: 4% and -0.82.
`Cc1ncsc1C(=O)N1CCCC[C@H](S(C)(=O)=O)C1`: the “% Inhibition” value was -10% and the Z score was determined as 1.73.
On the same counts, the results for `CC[C@@H](c1cccnc1)N(C)S(=O)(=O)c1c(C)n[nH]c1C` are -2% and 0.38.
For `O=C1CC[C@H](NC(=O)c2cccc(COc3cccc(F)c3)c2)CN1`, in that order: 0% and -0.02.
Consider `O=C(CCN1C(=O)CCC1=O)Nc1cccc(S(=O)(=O)N2CCCC2)c1`, for which the “% Inhibition” value worked out at 10% and the Z score was -0.96.
For `CCc1nc(CCNc2ccnc(C)c2)cs1`, in that order: -16% and 2.54.
On the same counts, the results for `O=C(Cn1cc(S(=O)(=O)N2CCOCC2)ccc1=O)Nc1ccc(F)cc1` are 1% and -0.24.
Turning to `COCCN(Cc1nc(C2CC2)no1)C(C)C`, the “% Inhibition” value is given as -5% and the Z score worked out at 0.88.
With `CC1(C)CN(S(=O)(=O)Cc2ccccc2)C[C@]2(C[C@@H]3CC[C@H]2C3)O1`, the “% Inhibition” value is -2% and the Z score turned out to be 0.29.
For `COc1ccc(N(Cc2nc(-c3ccccc3)oc2C)S(=O)(=O)c2ccccc2C)cc1`, in that order: 0% and 0.06.
For `O=S(=O)(c1cc(F)ccc1F)N1C[C@H](COCC2CC2)C2(CCOCC2)C1`, in that order: -2% and 0.28.
With `Cc1noc(CC2CCN(C(=O)CN3C(=O)OC[C@@H]3c3ccccc3)CC2)n1`, the “% Inhibition” value is given as -7% and the Z score was determined as 1.05.
For `O=C(NCc1cn(-c2ccncc2)nn1)OCC1CCC1`, in that order: 6% and -0.81.
